A lower IC50 marks a more sensitive line; a fit beyond the top or the lowest dose is shown as a bound at that dose. AUC, from the same fit, is the share of area under the viability curve across the 256-fold dose range: 1 means no effect, lower means more sensitive. For some assays here: A top dose marked as inferred was derived from the fitted curves, not read from the paper. For some assays here: Drugs with an entry number were screened twice under separate entries, and the two screens often disagree.
Tests used:
Assay in all cases: Viability of human cancer cell lines after 72 h of drug (GDSC screen)
NVP-TAE684 = compound: COc1cc(N2CCC(N3CCN(C)CC3)CC2)ccc1Nc1ncc(Cl)c(Nc2ccccc2S(=O)(=O)C(C)C)n1 [NVP-TAE684]; details: top dose 2 µM
Protocol: (§1)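 Human cancer cell lines in 384-well plates, medium with 10% serum, drug for 72 h over a 256-fold dose range (nine 2-fold or five 4-fold steps up to the top dose). Adherent lines were fixed and stained with the nucleic acid dye Syto60, suspension lines read with resazurin; signal relative to control wells, capped at 0 and 100%. One two-parameter sigmoid per drug and line, fitted in a mixed model over all curves with the slope shared within a line.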

SB-715992 = compound: Cc1ccc(C(=O)N(CCCN)[C@@H](c2nc3cc(Cl)ccc3c(=O)n2Cc2ccccc2)C(C)C)cc1 [SB-715992]; details: top dose 0.128 µM; top dose inferred
Protocol: as §1

JQ1 = compound: Cc1sc2c(c1C)C(c1ccc(Cl)cc1)=N[C@@H](CC(=O)OC(C)(C)C)c1nnc(C)n1-2 [JQ1]
Protocol: as §1

FTI-277 = compound: COC(=O)[C@H](CCSC)NC(=O)c1ccc(NC[C@@H](N)CS)cc1-c1ccccc1 [FTI-277]; details: top dose 1.024 µM; top dose inferred
Protocol: as §1

YM155 = compound: COCC[n+]1c2c(n(Cc3cnccn3)c1C)C(=O)c1ccccc1C2=O [YM155]; details: top dose 5.12 µM
Protocol: as §1

OSI-906 = compound: C[C@]1(O)C[C@@H](c2nc(-c3ccc4ccc(-c5ccccc5)nc4c3)c3c(N)nccn32)C1 [OSI-906]; details: top dose 2.56 µM; top dose inferred
Protocol: as §1

Cyclopamine = compound: CC1=C2C[C@H]3[C@@H](CC=C4C[C@@H](O)CC[C@@]43C)[C@@H]2CC[C@]12O[C@@H]1C[C@H](C)CN[C@H]1[C@H]2C [Cyclopamine]; details: top dose 16 µM; top dose inferred
Protocol: as §1

CGP-60474 = compound: OCCCNc1cc(-c2ccnc(Nc3cccc(Cl)c3)n2)ccn1 [CGP-60474]; details: top dose 0.256 µM; top dose inferred
Protocol: as §1

NSC-207895 = compound: CN1CCN(c2ccc([N+](=O)[O-])c3no[n+]([O-])c23)CC1 [NSC-207895]; details: top dose 20 µM; top dose inferred
Protocol: as §1

Belinostat = compound: O=C(/C=C/c1cccc(S(=O)(=O)Nc2ccccc2)c1)NO [Belinostat]; details: top dose 20 µM; top dose inferred
Protocol: as §1

JNJ-26854165 = compound: c1ccc2c(CCNc3ccc(Nc4ccncc4)cc3)c[nH]c2c1 [JNJ-26854165]; details: top dose 10 µM
Protocol: as §1

AMG-706 = compound: CC1(C)CNc2cc(NC(=O)c3cccnc3NCc3ccncc3)ccc21 [AMG-706]; details: top dose 2 µM; top dose inferred
Protocol: as §1

JNK Inhibitor VIII = compound: CCOc1nc(NC(=O)Cc2cc(OC)ccc2OC)cc(N)c1C#N [JNK Inhibitor VIII]; details: top dose 10 µM; top dose inferred
Protocol: as §1

[1] = top dose 2.56 µM, screen: GDSC drug entry 163
[2] = top dose 1 µM, screen: GDSC drug entry 1218, top dose inferred

Cell Line | AUC (NVP-TAE684) | IC50 (NVP-TAE684) [µM] | AUC (SB-715992) | IC50 (SB-715992) [µM] | AUC (JQ1; [1]) | IC50 (JQ1; [1]) [µM] | AUC (FTI-277) | IC50 (FTI-277) [µM] | AUC (YM155) | IC50 (YM155) [µM] | AUC (OSI-906) | IC50 (OSI-906) [µM] | AUC (Cyclopamine) | IC50 (Cyclopamine) [µM] | AUC (CGP-60474) | IC50 (CGP-60474) [µM] | AUC (NSC-207895) | IC50 (NSC-207895) [µM] | AUC (Belinostat) | IC50 (Belinostat) [µM] | AUC (JNJ-26854165) | IC50 (JNJ-26854165) [µM] | AUC (JQ1; [2]) | IC50 (JQ1; [2]) [µM] | AUC (AMG-706) | IC50 (AMG-706) [µM] | AUC (JNK Inhibitor VIII) | IC50 (JNK Inhibitor VIII) [µM]
NCI-H748 (small cell lung carcinoma, suspension) | 0.97 | > 2 | 0.838 | 0.124 | 0.724 | 0.842 | 0.959 | > 1.02 | 0.063 | < 0.02 | 0.973 | > 2.56 | 0.979 | > 16 | 0.756 | 0.11 | 0.741 | 7.56 | 0.261 | 0.209 | – | – | – | – | – | – | – | –
SR (lymphoid neoplasm, suspension) | 0.077 | < 0.00781 | 0.48 | 0.0071 | 0.846 | 1.59 | 0.911 | > 1.02 | 0.021 | < 0.02 | 0.959 | > 2.56 | 0.843 | 9.74 | 0.558 | 0.0226 | 0.777 | 7.2 | 0.043 | < 0.0781 | 0.711 | 2.29 | 0.976 | > 1 | 0.988 | > 2 | 0.981 | > 10
NB-4 (acute myeloid leukaemia, suspension) | 0.665 | 0.326 | 0.56 | 0.0113 | – | – | 0.991 | > 1.02 | 0.014 | < 0.02 | 0.519 | 0.179 | 0.903 | 14.2 | 0.741 | 0.0666 | 0.829 | 9.45 | 0.163 | 0.155 | 0.882 | 7.28 | – | – | 0.991 | > 2 | 0.985 | > 10
TE-10 (oesophagus, adherent) | 0.786 | 0.844 | 0.555 | 0.0112 | 0.607 | 0.312 | 0.956 | > 1.02 | 0.793 | 2.29 | 0.833 | 1.61 | 0.987 | > 16 | 0.651 | 0.0416 | 0.976 | > 20 | 0.987 | > 20 | 0.911 | > 10 | 0.984 | > 1 | 0.988 | > 2 | 0.988 | > 10
LOXIMVI (melanoma, semi-adherent) | 0.904 | > 2 | 0.936 | > 0.128 | 0.814 | 1.21 | 0.989 | > 1.02 | 0.026 | < 0.02 | 0.886 | 2.29 | 0.922 | > 16 | 0.829 | 0.137 | 0.99 | > 20 | 0.487 | 1.15 | 0.921 | > 10 | 0.917 | > 1 | 0.989 | > 2 | 0.982 | > 10
SW954 (urogenital system, adherent) | 0.67 | 0.373 | 0.488 | 0.00742 | 0.573 | 0.254 | 0.949 | > 1.02 | 0.042 | < 0.02 | 0.877 | > 2.56 | 0.985 | > 16 | 0.638 | 0.0387 | 0.889 | > 20 | 0.258 | 0.25 | 0.841 | 7.08 | – | – | 0.965 | > 2 | 0.923 | > 10
LB831-BLC (bladder, adherent) | 0.728 | 0.563 | 0.918 | > 0.128 | 0.721 | 0.685 | 0.928 | > 1.02 | 0.125 | < 0.02 | 0.986 | > 2.56 | 0.984 | > 16 | 0.633 | 0.0374 | 0.939 | > 20 | 0.387 | 0.609 | 0.87 | 9.56 | 0.982 | > 1 | 0.987 | > 2 | 0.978 | > 10
OVCAR-4 (ovary, adherent) | 0.665 | 0.453 | 0.957 | > 0.128 | 0.687 | 0.7 | 0.951 | > 1.02 | 0.044 | < 0.02 | 0.911 | > 2.56 | 0.923 | > 16 | 0.77 | 0.149 | 0.961 | > 20 | 0.786 | 13.8 | 0.83 | > 10 | 0.948 | > 1 | 0.965 | > 2 | 0.95 | > 10
NCI-H524 (small cell lung carcinoma, suspension) | 0.783 | 0.747 | 0.63 | 0.0175 | 0.958 | > 2.56 | 0.989 | > 1.02 | – | – | 0.978 | > 2.56 | 0.99 | > 16 | 0.809 | 0.117 | 0.985 | > 20 | 0.913 | > 20 | 0.923 | > 10 | 0.983 | > 1 | 0.987 | > 2 | 0.99 | > 10
IST-MES1 (mesothelioma, adherent) | 0.804 | 1.01 | 0.977 | > 0.128 | 0.819 | 1.47 | 0.985 | > 1.02 | 0.376 | 0.145 | 0.932 | > 2.56 | 0.882 | > 16 | 0.781 | 0.107 | 0.988 | > 20 | 0.495 | 1.21 | 0.875 | > 10 | 0.986 | > 1 | – | – | – | –

Source: the supplement of paper PMC4967469
